According to a collection of fitness landscapes (doi:10.1126/science.1257360):
Some of the results follow.

B1: PhoQ; a variant is named by its letters at X, in order, P23837 (parent)
chain: MKKLLRLFFPLSLRVRFLLATAAVVLVLSLAYGMVALIGYSVSFDKTTFRLLRGESNLFYTLAKWENNKLHVELPENIDKQSPTMTLIYDENGQLLWAQRDVPWLMKMIQPDWLKSNGFHEIEADVNDTSLLLSGDHSIQQQLQEVREDDDDAEMTHSVAVNVYPATSRMPKLTIVVVDTIPVELKSSYMVWSWFIYVLSANLLLVIPLLWVAAWWSLRPIEALAKEVRELEEHNRELLNPATTRELTSLVRNLNRLLKSERERYDKYRTTLTDLTHSLKTPLXXLQXXLRSLRSEKMSVSDAEPVMLEQISRISQQIGYYLHRASMRGGTLLSRELHPVAPLLDNLTSALNKVYQRKGVNISLDISPEISFVGEQNDFVEVMGNVLDNACKYCLEFVEISARQTDEHLYIVVEDDGPGIPLSKREVIFDRGQRVDTLRPGQGVGLAVAREITEQYEGKIVAGESMLGGARMEVIFGRQHSAPKDE

Variants of: B1
Assay: enrichment ratio after two sorts for PhoP signalling (ratio (wild type AVST 3.29)); higher = more functional
Details: with PhoP (E. coli)

VTKA was tested. Which enrichment ratio did it give?
Its enrichment ratio is no more than 0.25.

Which enrichment ratio does the source give for MGYG here?
Its enrichment ratio is 5.96.

With SPGE as the variant, how does the enrichment ratio read?
The enrichment ratio was no more than 0.25.

With IMPR as the variant, how does the enrichment ratio read?
Its enrichment ratio is no more than 0.25.

Which enrichment ratio does the source give for LILV here?
The enrichment ratio was no more than 0.25.

Which enrichment ratio does the source give for LMSA here?
The enrichment ratio was no more than 0.25.

For KGMW, which enrichment ratio is on record?
The enrichment ratio was no more than 0.25.

How did the enrichment ratio turn out when HENR was run?
The enrichment ratio was no more than 0.25.

Which enrichment ratio does the source give for FWEG here?
Its enrichment ratio is no more than 0.25.

KHAA was tested. Which enrichment ratio did it give?
Its enrichment ratio is no more than 0.25.

With NNPR as the variant, how does the enrichment ratio read?
The enrichment ratio was no more than 0.25.

Which enrichment ratio does the source give for NWAK here?
Its enrichment ratio is no more than 0.25.

Which enrichment ratio does the source give for MKFT here?
The enrichment ratio was no more than 0.25.

For YLRG, which enrichment ratio is on record?
The enrichment ratio was no more than 0.25.

RIPP was tested. Which enrichment ratio did it give?
Its enrichment ratio is no more than 0.25.

Which enrichment ratio does the source give for DTPI here?
Its enrichment ratio is no more than 0.25.

Which enrichment ratio does the source give for MALS here?
The enrichment ratio was 8.05.

WEGC was tested. Which enrichment ratio did it give?
Its enrichment ratio is no more than 0.25.

For LVVF, which enrichment ratio is on record?
Its enrichment ratio is no more than 0.25.

With WGPT as the variant, how does the enrichment ratio read?
The enrichment ratio was no more than 0.25.

Which enrichment ratio does the source give for LKER here?
The enrichment ratio was no more than 0.25.

For HWWF, which enrichment ratio is on record?
The enrichment ratio was no more than 0.25.

With MTDF as the variant, how does the enrichment ratio read?
Its enrichment ratio is no more than 0.25.

Which enrichment ratio does the source give for EEIV here?
The enrichment ratio was no more than 0.25.

How did the enrichment ratio turn out when RCFN was run?
Its enrichment ratio is no more than 0.25.

For IANN, which enrichment ratio is on record?
The enrichment ratio was no more than 0.25.

Which enrichment ratio does the source give for FVYY here?
Its enrichment ratio is no more than 0.25.

For AMTK, which enrichment ratio is on record?
The enrichment ratio was no more than 0.25.

With VQIY as the variant, how does the enrichment ratio read?
Its enrichment ratio is no more than 0.25.

For DQCY, which enrichment ratio is on record?
The enrichment ratio was no more than 0.25.

Which enrichment ratio does the source give for IYTH here?
The enrichment ratio was no more than 0.25.

With TGLT as the variant, how does the enrichment ratio read?
Its enrichment ratio is 13.5.

Which enrichment ratio does the source give for FEMC here?
The enrichment ratio was 10.8.

For KDVF, which enrichment ratio is on record?
Its enrichment ratio is no more than 0.25.

For LCRF, which enrichment ratio is on record?
Its enrichment ratio is no more than 0.25.

How did the enrichment ratio turn out when FRWF was run?
The enrichment ratio was no more than 0.25.

VWFC was tested. Which enrichment ratio did it give?
The enrichment ratio was no more than 0.25.

ANRD was tested. Which enrichment ratio did it give?
Its enrichment ratio is no more than 0.25.

For YTFL, which enrichment ratio is on record?
The enrichment ratio was no more than 0.25.

Which enrichment ratio does the source give for HICM here?
Its enrichment ratio is no more than 0.25.

Which enrichment ratio does the source give for KCIR here?
Its enrichment ratio is no more than 0.25.

How did the enrichment ratio turn out when AYNI was run?
Its enrichment ratio is no more than 0.25.

For HKST, which enrichment ratio is on record?
The enrichment ratio was no more than 0.25.

Which enrichment ratio does the source give for ITTP here?
Its enrichment ratio is no more than 0.25.

Which enrichment ratio does the source give for ACRI here?
Its enrichment ratio is no more than 0.25.

How did the enrichment ratio turn out when LMIY was run?
Its enrichment ratio is no more than 0.25.

How did the enrichment ratio turn out when VSCW was run?
The enrichment ratio was no more than 0.25.

Which enrichment ratio does the source give for LIMT here?
Its enrichment ratio is no more than 0.25.

For NIAK, which enrichment ratio is on record?
Its enrichment ratio is no more than 0.25.

HQTM was tested. Which enrichment ratio did it give?
Its enrichment ratio is 2.38.

Which enrichment ratio does the source give for RRAH here?
Its enrichment ratio is no more than 0.25.

TVVP was tested. Which enrichment ratio did it give?
Its enrichment ratio is no more than 0.25.

Which enrichment ratio does the source give for PEWD here?
Its enrichment ratio is no more than 0.25.

For HFTH, which enrichment ratio is on record?
The enrichment ratio was no more than 0.25.

FSWL was tested. Which enrichment ratio did it give?
The enrichment ratio was no more than 0.25.

How did the enrichment ratio turn out when LCSS was run?
The enrichment ratio was no more than 0.25.

QGKA was tested. Which enrichment ratio did it give?
The enrichment ratio was no more than 0.25.

For KEEQ, which enrichment ratio is on record?
Its enrichment ratio is no more than 0.25.

For RYHV, which enrichment ratio is on record?
The enrichment ratio was no more than 0.25.

With DMKW as the variant, how does the enrichment ratio read?
The enrichment ratio was no more than 0.25.

VHPP was tested. Which enrichment ratio did it give?
Its enrichment ratio is no more than 0.25.

WGRC was tested. Which enrichment ratio did it give?
Its enrichment ratio is no more than 0.25.

With YAKK as the variant, how does the enrichment ratio read?
The enrichment ratio was no more than 0.25.

With KNNI as the variant, how does the enrichment ratio read?
The enrichment ratio was no more than 0.25.

How did the enrichment ratio turn out when VDAQ was run?
The enrichment ratio was no more than 0.25.

For ERKE, which enrichment ratio is on record?
Its enrichment ratio is no more than 0.25.

With QRAP as the variant, how does the enrichment ratio read?
The enrichment ratio was no more than 0.25.

With HKNF as the variant, how does the enrichment ratio read?
The enrichment ratio was no more than 0.25.

How did the enrichment ratio turn out when HSAE was run?
The enrichment ratio was no more than 0.25.

With HMPV as the variant, how does the enrichment ratio read?
The enrichment ratio was no more than 0.25.

How did the enrichment ratio turn out when NRNP was run?
The enrichment ratio was no more than 0.25.

AIMS was tested. Which enrichment ratio did it give?
Its enrichment ratio is 14.3.

FLGV was tested. Which enrichment ratio did it give?
Its enrichment ratio is no more than 0.25.

With ACKR as the variant, how does the enrichment ratio read?
Its enrichment ratio is no more than 0.25.

With HKGQ as the variant, how does the enrichment ratio read?
The enrichment ratio was no more than 0.25.

NSWP was tested. Which enrichment ratio did it give?
Its enrichment ratio is no more than 0.25.

For RNGD, which enrichment ratio is on record?
The enrichment ratio was no more than 0.25.

For RLTM, which enrichment ratio is on record?
Its enrichment ratio is no more than 0.25.

With PCCN as the variant, how does the enrichment ratio read?
Its enrichment ratio is no more than 0.25.

How did the enrichment ratio turn out when YKLR was run?
The enrichment ratio was no more than 0.25.

With DVCH as the variant, how does the enrichment ratio read?
The enrichment ratio was no more than 0.25.

VMII was tested. Which enrichment ratio did it give?
The enrichment ratio was no more than 0.25.

With DPCV as the variant, how does the enrichment ratio read?
Its enrichment ratio is no more than 0.25.

How did the enrichment ratio turn out when VQHF was run?
Its enrichment ratio is no more than 0.25.

With QRFW as the variant, how does the enrichment ratio read?
Its enrichment ratio is no more than 0.25.

TVQW was tested. Which enrichment ratio did it give?
The enrichment ratio was no more than 0.25.

For DDTT, which enrichment ratio is on record?
The enrichment ratio was no more than 0.25.

For HIPI, which enrichment ratio is on record?
Its enrichment ratio is no more than 0.25.

How did the enrichment ratio turn out when YTVL was run?
Its enrichment ratio is 0.419.

YQQA was tested. Which enrichment ratio did it give?
Its enrichment ratio is no more than 0.25.

For YPVQ, which enrichment ratio is on record?
The enrichment ratio was no more than 0.25.

WTNS was tested. Which enrichment ratio did it give?
Its enrichment ratio is no more than 0.25.

For SDRH, which enrichment ratio is on record?
The enrichment ratio was no more than 0.25.

Which enrichment ratio does the source give for YWHL here?
The enrichment ratio was no more than 0.25.

With PDFE as the variant, how does the enrichment ratio read?
Its enrichment ratio is no more than 0.25.

With PRFV as the variant, how does the enrichment ratio read?
The enrichment ratio was no more than 0.25.

AWIV was tested. Which enrichment ratio did it give?
Its enrichment ratio is no more than 0.25.

For QHHA, which enrichment ratio is on record?
Its enrichment ratio is no more than 0.25.
